The results in this text go back to the RNAGym collection of RNA variant scans (doi:10.1073/pnas.2313332121).

B1: TPR 5TU (parent)
chain: GGAUCUUCUCGAUCUAACAAAAAAGACAAAUCUGCCACAAAGCUUGAGAGCAUCUUCGGAUGCAGAGGCGGCAGCCUUCGGUGGCGCGAUAGCGCCAACGUUCUCAACUAUGACACGCAAAACGCGUGCUCCGUUGAAUGGAGUUUAUCAUG

This sample is rich in variants without activity.

In the data set the parent is B1. The data set can be described thus: polymerase ribozyme fitness, log enrichment relative to wild type (log ratio); higher = more active; in vitro selection for triplet polymerase activity. A digest of the protocol: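 Each subunit of a heterodimeric triplet polymerase ribozyme was represented by a PCR-built, transcribed mutant library that underwent triplicate single-round in vitro selection with frozen incubation at −7 °C. Extended constructs were recovered by gel excision, streptavidin-bead capture and RT-PCR, and Illumina sequencing of input and output libraries kept genotypes with ≥10 input reads and ≥1 read per output. Fitness is the logarithm of genotype enrichment relative to wild-type enrichment, from inverse-variance-weighted replicate averages, with a logarithm base of 2.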
Turning to GGAUCUUCUCGAUCUAACAACAAAGACAAAUCUGCGACAACGCUUGAGAGCAUCUUCGGAUGCAGAGGCGGUUGCCUGCGGUGGCGCGAUAGCGCUAACGUUCUCAACUAUGACACGUAAAACGCGUACUCCGUUGAAUGGUGUUUAUCAUG [A21C C36G A41C C72U A73U U78G C96U C118U G128A A142U], the “polymerase ribozyme fitness (log ratio)” value is no more than -4.2. For GGAUCUUCUCGAUCUAACAACAAAGACAUAUCUGCCACAUAGCUUGAGAGCAUCUUCGGAUGCAGAGGCGGCAGCCUUCGGUGGCGCGAUAACGCCAACGUUCUCCACUAUGACACGCAAAACGCGUGCUCCGUUGAAUGGAGUUUAUCAUG [A21C A29U A40U G92A A106C] the value was no more than -4.2; for GGAUCUUCUCGAUCUAACAACAAUGACAAAUAUGCCACAAAGCUUGAGAGCAUCUUCGGAUGCAGAGGCGGCAGCCUUCAGUGGCGCGAUAGUGACAACGUUCUCAACUAUGACACGCAAAACGCGUGCUCCGUUGAAUGGAGUUUAUCAUG [A21C A24U C32A G80A C93U C95A], no more than -4.2; for GGAUCUUCUCGAUCUAACAACAAAGUCAAAUCUGCCAUAAAGCUUGAGAGCAUCUUCGGAUGCAGAGGCGGCAGCCUUCGGUGGCGGGAUAGCGCCAACGUUCUUAACUAUGACACGCAAAACGCGUGCUCCGUUGAAUGGAGUUUAUCAUG [A21C A26U C38U C87G C105U], no more than -4.2.

With GGAUCUUCUCGAUCUAACAACUAAGACAAAUCUGCCUCAAAGCUUGAGAGCAUCUUCGGAUGCAGAGUCGGCAGCCUUCGGUGGCGCGAUAGCUCCAACGUUCUCAACUAUGACACGCAAAACGCUAGCUCCGUUGAAUGGAGUUUAUCAUG [A21C A22U A37U G68U G94U G126U U127A], the “polymerase ribozyme fitness (log ratio)” value was no more than -4.2.

Take GGAUCUUCUCGAUCUAACAACAAAGACAAAUCUGCCACAAAGCUUGAGCGCAUCUUCGGAUGCAGAGUCGGCUGCCUUCGGUGGCGCGAUAGCGCCGACGUUCUCAACUAUGACACGCAAAACGCGUGCUCCGUUGAAUGGAGUUUAUCAUG [A21C A49C G68U A73U A97G]: the “polymerase ribozyme fitness (log ratio)” value was no more than -4.2. To GGAUCUUCUCGAUCUAACAACAAAGACAAAUCUGCCACAAUGCUUGAGAGCAUCUUUGGAUGCAGAGGCGGCAGCCUUCGGUGGCGCGAUAGCGCCAACGUUCUCAACUAUGACACGCUAAACGCGUGCUCCGAUGAAUGGAGAUUAUCAUG [A21C A41U C57U A119U U134A U144A] belongs -4.17. To GGAUCUUCUCGAUCUAACAACAAAGACAAAUCUGCCACAAAGCUUUAGAGCAUCUUCGCAUGCAGAGGCGGCAGCCUUCGGUGGCGUGAUAGCGCCAACGUUCUCAACUAUGACACGCAAAACGCGUGCUCGGUUGAAUGGAGUUUAUCAUG [A21C G46U G59C C87U C132G] belongs no more than -4.2; to GGAUCUUCUCGAUCUAACAACAAAGACAAAUCUGCCACAAAGCUUGUGAGCAUCGUGGGAUGCAGAGGCGGCAGCCGUCGGUGGCGCGAUAGCGCCAACGUUCUCAACUAUGACACGCAAAACGCGUGCUCCGUGGAAUGGAGAUUAUCAUU [A21C A47U U55G C57G U77G U135G U144A G152U], no more than -4.2. For GGAUCUUCUCGAUCUAACAACUAAGACAAAUCUGACACAAAGCUUGAGAGCAUCUUCGGAUGCAGAGGCGGCAGCCUUCGGUGGCGCGAUAGCACCAACGUUCUCAACUAUGACACGCAAAACGCGUGCUCCGUUGAAUGGAGUUUGUCAUG [A21C A22U C35A G94A A147G] the value was no more than -4.2; for GGAUCUUCUCGAUCUAACAACAAAGACAAAUCUGCCACAAAGCUUGAGAGCAUCUUCGGAUGCAGAGGCGGCAGCCUUCGGUGGCGCGAUAGCGCCAACGUUCUCAACUAUGACAUGCAAAACGCGUGCUCCGUUGAAUGGAGUUUAUCAUG [A21C C116U], 0.668. Regarding GGAUCUUCUCGAUCUAACAACAAAGACAAAUCUGCCACAAAGCUUGAGACCAUCUUCGGAUGCAGAGGCGGCAGACUUCGGUGGCUCGAUAGCGCCAUCGUUCUCAGCUAUGACACGCAAAACGCGUGCUCCGUUGAAUGGAGUUUAUCAUG [A21C G50C C75A G86U A98U A107G], the “polymerase ribozyme fitness (log ratio)” value was no more than -4.2. For GGAUCUUCUCGAUCUAACAACAAAGACAAAUCUGCCACAAAGCUUGAGAGCAUCUUCGGAUGCAGAGGCGGCAGCCUUCGGUGGCGCGAUAGCGCCAACGUUCUCAACUCUGACACGCAAAACGCGUGCUCCGUUGAAUGGAGUUUAUCAUG [A21C A110C] the value was no more than -4.2.

With GGAUCUUCUCGAUCUAACAACAAAGACAAAUCUGCCAUAAAGCGUGAGAGCAUCUUCGGAUGCAGAGGCGGCAGCCUUCGGUGGCGCGAUAGCGCCAACGUUCUCAACUAUGACACGCAAAACUCGUGCUCCGUUGAAUGGAGUUUAUCAUG [A21C C38U U44G G124U], the “polymerase ribozyme fitness (log ratio)” value is no more than -4.2. To GGAUCUUCUCGAUCUAACAACAAAGACAAAUCUGCCACAUAGCUUGAGAGCAUCUUCGGAUGCAGAGGCGGCAGCCUUCGGUGGCGCGAUAGAGCCAACGUUCUCAACUAUGACACGCAAAACGCGUGCUCCGUUGAAUGGAGUUUAUCAUG [A21C A40U C93A] belongs -1.84; to GGAUCUUCUCGAUCUAACAACAACGACAAAUCUGCCACAAAGCUUGAGACCAUCUUCGGAUGCAGAGGCGGCAGCCUUCGGUGGCGCGAUAGCGCCAACGUUCUCAACUAUGACACGCAAAACGCGUGCUCCGUUGAAUGGAGUUUAUCAUG [A21C A24C G50C], no more than -4.2; to GGAUCUUCUCGAUCUAACAACAAAGACAAAUCUGCCACAAAGCUUGAGAGCAUCUUUGGAUGCAGAGGCGGCAGCCUUCGGUGGCGCGAUAGAGACAACGUUCUCAACUAUGACACGCAAAACGCGUGCUCCGUUGAAGGGAGUUUAUCAUG [A21C C57U C93A C95A U139G], no more than -4.2.

Regarding GGAUCUUCUCGAUCUAACAACAAAGACAAAUCUGCCACAAAGCUUGAGAGCAUCUUCGGAUGCAGAGGCGGCAGCCUUCGGUGGCGCGAUAGAGCCAACGUUCUCAGCUAUGACACGCAAACCGCGUGCUCCGUUGAAUGGAGUUUAUCAUG [A21C C93A A107G A122C], the “polymerase ribozyme fitness (log ratio)” value was no more than -4.2. For GGAUCUUCUCGAUCUAACAACAAAGACAAAUCUGCCACAAAGCUUGAGAGCAUCUUCGGGUGCAGAGGCGGCAGCCUUCGGUGGCGCGAUAGCGCCAACGUUCUCAACUAUGACACGCAAAACGCGUGCUCCGUUGAAUGGAGUUUAUCAUG [A21C A60G] the value was 0.714.
